Test results published in the supplement of paper PMC3334620.
The full ranking holds about 33,000 sequences; the median of “E-score (-0.5 to 0.5)” is about -0.054, and the highest 2% start at about 0.39. This is one part of the list.

molecular target: Ylr278c (UniProt Q05854); assay: PBM E-score (8-mer binding enrichment) (E-score (-0.5 to 0.5)); higher = stronger / more preferred TF binding; most listed sequences are background and not binding sites; settings: protein concentration: 200 nM; construct: GST-DNA-binding domain
Protocol: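 Universal 'all 10-mer' protein binding microarrays (Agilent AMADID 015681) probed with GST-tagged S. cerevisiae TFs (full-length or DBD) made by in vitro transcription/translation (PURExpress), about 100-200 nM. Bound TF was detected with fluorescent anti-GST. Each ungapped 8-mer (which stands for itself and its reverse complement) is scored by the PBM enrichment score (E-score), a modified Wilcoxon-Mann-Whitney statistic from -0.5 to +0.5, computed with the Universal PBM Analysis Suite. Scale: above 0.35 generally sequence-specific binding.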

Sequence	PBM E-score
CATCCCGC	0.167
CAGACTCA	-0.242
GTACACCA	-0.162
ATACGAGG	-0.0907
AGCCGCGA	0.185
GGACGATA	0.0331
CGTCGCGC	0.103
GATTCCGA	0.413
AAACTAGT	-0.125
ATGAGCGC	-0.0209
AAAGATTA	0.159
CGCTCTTC	-0.043
GGACAGAA	0.0642
TCGCCTAA	-0.0503
CCTAACAG	-0.13
ACGTTATG	-0.0459
CATGGCTA	-0.0652
GCTTATTA	-0.101
AACTCGAA	-0.11
AGCTCATC	-0.0266
CGCAGTAC	-0.23
GACGGGCA	0.0635
CGTTCAAC	-0.0583
CTTGCTGC	-0.271
GATGCAAC	-0.0627

Sequence	PBM E-score
CTAGATCA	-0.331
ACCGTGAG	-0.0949
TTAAGGAA	-0.0896
ACACGAAG	0.00792
AGGAAAGG	-0.151
GGAGACAC	0.173
CACTATAC	-0.219
AATGTGTA	-0.196
AGGGACGG	0.00956
CGCCGCGC	0.287
TATCGCAA	-0.0847
CAGAAGCC	0.0666
GAGTGAAC	0.00297
ACTTAACA	-0.132
AGCTCACG	-0.083
ACAAAGCA	-0.0597
CGCTACAC	0.00231
ATACCTGC	-0.213
ATCGTAAT	-0.117
AGCTAATG	-0.219
CCATTCAA	-0.0303
CGAGACAA	-0.0718
ATGTTTTC	0.116
ATCAAATA	-0.0863
GATGTGCA	-0.131

Sequence	PBM E-score
ATGGTTGC	-0.23
ATGACGTA	-0.2
CAAGAACG	-0.0605
ATCCTAAT	-0.1
ACCCAGCA	-0.0981
ATCATCTA	-0.112
CCTTGTTC	-0.0785
CACCCAGA	-0.18
CATTGGCG	-0.191
ATAGTGAC	-0.179
GCAGCGAA	-0.163
ATTCTAGG	-0.263
AGGAACAG	-0.279
CTACAGAC	-0.0911
CCTAGGCC	0.0534
AGATTCAG	-0.142
CAAAGGGG	-0.224
AGCCAGCG	-0.159
CGGAGTGA	0.459
ACTCTCCT	-0.0833
AATGTCAG	-0.137
CAAAGATC	-0.121
ACTCTCTA	-0.335
GCCGACGC	0.33
ACCGGCAA	0.285

Sequence	PBM E-score
GACGACAC	0.0544
AACAGCCG	0.0132
CAGATGAA	-0.107
ACAGCATA	-0.047
AGTTTACC	0.067
GCAGCGCA	-0.0397
CTTTATCA	-0.215
ATGCATCA	0.0873
AAACGCCC	0.204
CACAACTC	0.0754
CAAACAAG	0.0172
GCATCTCA	-0.235
ATACAAGG	-0.1
CTCCGGAG	0.481
ACATTGAG	-0.114
GACTTAGA	-0.148
CACCCTTC	-0.0372
TTACATAA	-0.0071
TCCGCGGA	0.44
CAACAAAA	-0.221
AGGAAACG	-0.0963
CCCGTAAC	0.173
TGAGGCAA	-0.214
ACTCTATG	-0.148
ACGGTCAG	-0.314

Sequence	PBM E-score
ACTGTGAA	-0.185
CACTTGCA	-0.186
CAAGGCGA	-0.199
GGTGAGAA	0.052
ACTCGATC	-0.0157
CAGTTACG	-0.0458
TCCAGAAA	-0.029
ATGCTATC	-0.0946
CTAAGTGA	-0.0496
CGACCCAA	-0.118
GAATTGTC	0.0455
ATCTGAGG	-0.11
CTCCCGCC	0.254
AGCAGAGG	-0.143
ACGTTCTC	-0.0461
CGCTTCAC	-0.0767
GGGGAACA	-0.0328
ATACCCGA	0.151
AGAGTAGG	-0.0231
ACTCTTGC	-0.131
AGTCAAAT	-0.158
ATGATAGG	-0.12
AGGGTCCA	0.00243
GCATACGC	0.127
AGCAGTAA	-0.0545

Sequence	PBM E-score
GTGGTTTA	0.0618
CAGAGCGA	0.0392
TTATTCAA	-0.0937
AGGGGCGA	-0.0788
CCTCGCAA	-0.0139
GCGCGCCA	0.161
ACATCTAA	-0.148
AACCCTCG	-0.0138
AAGACAGT	-0.0351
AGTAGAAG	-0.172
ACAGGGGC	-0.0558
CAGTGGTA	-0.305
CCCCGAAC	0.315
GCACCCAC	-0.0269
AATCTGGG	-0.158
ATAAGCGG	0.146
AAGGGGAA	-0.236
AGCTAGGA	-0.114
AACAGACT	-0.132
ACTAGGAT	-0.13
CCCGTACC	0.21
AAACTGAG	-0.0407
AACGATCA	-0.132
CAGTTAGC	-0.102
GTGGCCGA	0.146

Sequence	PBM E-score
AGCAGGAC	-0.0119
GTGGATTA	0.0111
CACTCAGA	-0.152
AGTATTTC	0.123
GATTCTCC	0.22
TATGTGGA	-0.0561
ATGACCGG	0.291
CCCCTGAC	-0.01
AAACTCGT	-0.202
CCCTTCAA	-0.0436
ACTCGAGC	-0.141
TAGGAGAA	-0.134
AAATCGGT	0.148
CTCCTCGC	-0.137
AGCCGCTC	0.151
ATATGCGG	0.234
CAAGTACC	0.0395
ACGGAGTG	0.401
AGCGCCAT	-0.199
AGATCCCT	-0.18
AACTCTAG	-0.364
AGGTCGGC	0.114
AGCCGCTG	-0.0241
ACCCGTGA	-0.0929
CACCTTCA	-0.104

Sequence	PBM E-score
ACCACACC	0.0111
CTGCTAAC	-0.243
AAGGAGGT	-0.0384
GGGACCCC	-0.00447
ACCATCCC	0.0938
CTTCCCTA	-0.0804
ACTCCAAA	-0.118
AGTTGCCA	-0.145
CCTGTCGA	-0.217
CTGGTAAC	-0.0766
AAAATGAG	-0.0983
CACAGGGG	-0.233
CACTGTGC	-0.0342
AATGACGG	0.174
TGCGAACA	0.0112
GGGGAAGA	-0.165
ATCGCTAG	-0.114
CTTAAAAC	0.0315
CATTAAAG	-0.175
CGCCGGCG	0.463
CGCTAGAC	-0.186
AATCGGGT	0.176
ACAACACC	-0.0493
GTCTCGCA	-0.248
GAAGTACC	0.0915

Sequence	PBM E-score
GGCCCCCC	-0.0188
GAAATAGA	0.00766
CAGTCGTA	-0.156
ACATAGGC	-0.00235
CCGATGTA	0.238
CTTCTACC	-0.168
ATAGCCAC	-0.15
TATAGAAA	-0.181
AAAGTACC	-0.0575
AGACCGTC	-0.0135
CCTCCGCG	0.416
GTTCGCAA	-0.0313
AATATCAG	-0.154
ACTATAGT	-0.0176
CTGCGGGC	0.276
CTGCGGCC	0.2
GCGTCACC	-0.148
CAGAAACG	0.0223
CTGAAATA	-0.122
